# Test results taken from PubChem BioAssay AID493208 (National Center for Advancing Translational Sciences (NCATS), 2011).
# Screen size: about 44,000 compounds; about 340 (0.77%) were called active. Not shown: some 5% with an inconclusive outcome. Calls come from the whole dose curve; as a rule, active = well fitted inhibition curve with a large enough effect; inconclusive = small, poorly fitted or top-dose-only effect; inactive = flat fitted curve, though single readings scatter. The list shows a part of the results.
# Assay: Acumen qHTS Assay for Inhibitors of the mTORC1 Signaling Pathway in MEF (Tsc2-/-, p53-/-) Cells: Sytravon;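 note: plate controls were DMSO for no effect and rapamycin for full effect; nearly all actives have a fitted effect of over 50% in size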
# Conditions: phospho-rpS6 immunofluorescence/PI, 24 h; series mostly up to 38.3 µM; activity change, negative = inhibition: at the top concentration
# Summary of the method: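 Plate MEFs (Tsc2-/-, p53-/-, empty vector) in DMEM/10% FBS; after 24 h add compound, incubate 24 h at 37 degree Celsius; fix in PFA/TX-100, block, stain phospho-rpS6 and 10 uM PI; scan at 488 nm; report % positive cells.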
row,SMILES,"activity change, negative = inhibition"
1,COc1ccc(OCC(=O)N2CCN(C(=O)c3ccc(OC)c(OC)c3)CC2)cc1,inactive: 6.36%
2,Cc1cccc(C)c1NC(=O)CCSCCc1ccccn1,inactive: -13.1%
3,COc1cn(CC(=O)Nc2ccc(C)cc2)c(CN2CCCCC2)cc1=O,inactive: -0.868%
4,O=C(CCNS(=O)(=O)c1ccc2c(c1)CCN2C(=O)C1CC1)Nc1ccc(Cl)cc1,inactive: -0.608%
5,COc1ccccc1CN1CCC(CNC(=O)c2cnn(-c3cccc(Cl)c3)c2C2CCN(C(=O)OC(C)(C)C)CC2)CC1,inactive: -6.53%
6,Cc1c(NS(=O)(=O)c2ccc(C(C)(C)C)cc2)c(=O)n(-c2ccccc2)n1C,inactive: 4.47%
7,Cc1cccc(NC(=O)CN2C(=O)C(c3ccc(F)cc3)=NC23CCCCCC3)c1C,inactive: -6.23%
8,Cc1cc2c(cc1S(=O)(=O)NCc1ccc(F)cc1)OCC(=O)N2,inactive: 11.4%
9,COc1ccc(NC(=O)CN2C(=O)COc3ccc(S(=O)(=O)NC4CCCC4)cc32)cc1OC,inactive: 1.58%
10,Cc1ccc(-n2ncc3c(NC4CCCCC4)ncnc32)cc1C,inactive: 10.2%
11,O=C(c1ccccc1)n1nc(-c2ccc(Cl)cc2)nc1NCc1ccco1,inactive: -16.1%
12,CCOC(=O)c1cc2c(=O)n3ccccc3nc2n(CCOC)c1=NC(=O)c1c(-c2c(F)cccc2Cl)noc1C,inactive: -20.5%
13,CSc1ccc(CCNC(=O)Cn2ncc3c([nH]c4ccccc43)c2=O)cc1,inactive: -9.04%
14,COc1ccccc1C(=O)NC(=O)Nc1ccc(-c2cc(C(F)(F)F)nn2-c2ccccc2)cc1,inactive: -2.29%
15,CCc1ccc(N(CC)C(=O)c2cn(C)c(=O)c3cc(OC)c(OC)cc23)cc1,inactive: 12.8%
16,CCOc1ccc2c(c1)NC(c1ccc(OCC)c(OCC)c1)=NC(c1ccc(F)cc1)=N2,inactive: -0.734%
17,CCN(CC)c1ccc(NC(=O)C2CCN(S(=O)(=O)c3c(C)noc3/C=C/c3ccccc3F)CC2)c(C)c1,inactive: 0.256%
18,CC(C)(C)C1CCc2c(sc3nc(-c4cc5cc(Cl)ccc5oc4=O)[nH]c(=O)c23)C1 (stereo not given),inactive: 0%
19,Cc1ccc(NC(=O)Cn2nc(C(F)(F)F)c3c2CCCC3)cc1,inactive: -12.9%
20,Cc1ccc(S(=O)(=O)NCCc2nnc3ccc(SCC(=O)Nc4c(C)cc(C)cc4C)nn23)cc1,inactive: -2.5%
21,CCn1c(CNC(=O)c2ccc(OC)cc2)nnc1SCC(=O)Nc1cccc(C)c1,inactive: 1.39%
22,Cc1ccc(S(=O)(=O)N2CCCc3cc(NC(=O)c4ccc(Cl)cc4)ccc32)cc1,inactive: 17%
23,CCOc1ccc(CCNC(=O)c2c3c(nc4ccccc24)C(=O)N(C2CCCCC2)C3)cc1,inactive: -3.34%
24,COC(=O)c1c(NC(=O)c2cc(=O)c3cc(C)cc(C)c3o2)sc2c1CCC2,inactive: -2.74%

row,SMILES,"activity change, negative = inhibition"
1,CCOC(=O)c1ccc(NC(=O)c2nc(SCc3ccc(F)cc3)ncc2Cl)cc1,inactive: -6.5%
2,COc1ccccc1NC(=O)c1cc2cc3ccc(OC)c(Cl)c3nc2s1,inactive: -5.66%
3,O=C(NCCc1ccccc1Cl)c1cc2ccccn2n1,inactive: -4.11%
4,Cc1ccc(CC(=O)NCc2nc(-c3ccccc3)no2)cc1,inactive: -3.26%
5,CCCCn1c(=O)c2oc3ccccc3c2n(Cc2ccc(C)cc2)c1=O,inactive: 2.37%
6,Cc1cc(SCC(=O)Nc2ccc(F)cc2F)nc(=O)[nH]1,inactive: 4.04%
7,O=C(Cn1cc(S(=O)(=O)Cc2ccccc2F)c2ccccc21)Nc1ccc(F)c(Cl)c1,inactive: 4.96%
8,COc1ccc(CNc2ncnc3c2c(-c2ccccc2)cn3-c2ccc(C)c(Cl)c2)cc1,inactive: 10.8%
9,COc1cccc(C(=O)Nc2nc(-c3nnn(-c4cccc(Cl)c4C)c3C)ns2)c1,inactive: 6.1%
10,COc1ccc2c(CNCc3ccco3)c(C(=O)O)n(Cc3cccc(F)c3)c2c1,inactive: -8.99%
11,CCCN(CCC)C(=O)C1CCN(c2cc(C)nc3c(-c4ccc(Cl)cc4)c(C)nn23)CC1,inactive: -2.31%
12,Cn1c(NCCCO)nc2c1c(=O)n(Cc1cccc(F)c1)c(=O)n2C,inactive: 12.1%
13,COc1ccc(C(=O)Nc2ccc(-c3nc4ccccc4s3)c(Cl)c2)cc1Cl,inactive: -12.3%
14,O=C(NCCO)c1ccc(-c2nnc(Nc3ccc(OC(F)(F)Cl)cc3)c3ccccc23)cc1,inactive: -13.9%
15,CCCc1nn2c(=O)cc(COC(=O)c3ccc4c(c3)OCO4)nc2s1,inactive: 3.08%
16,Cc1cc2nc(-c3ccc(OCc4ccccc4F)cc3)cc(C(F)(F)F)n2n1,inactive: 2.67%
17,Cc1ccc(C)c(NC(=O)c2oc(=O)c3ccccc3c2-c2ccccc2)c1,inactive: -0.454%
18,Cc1ccc(-c2c(C(=O)Nc3ccccc3F)oc(=O)c3ccccc23)cc1,inactive: 4.39%
19,Cc1ccc(C)c(Cn2c(SCC(=O)NCc3ccccc3)nc3ccccc32)c1,inactive: 0%
20,CCOC(=O)c1cccc(NC(=O)C2=C(C)C(=O)OC23CCCCC3)c1,inactive: -0.417%
21,Cc1ccc(C)c(N2CCN(C(=O)Cn3cnc4nc5c(cc4c3=O)CCCC5)CC2)c1,inactive: 0.141%
22,Cn1c(NCCN)nc2c1c(=O)n(Cc1ccccc1)c(=O)n2C,inactive: 9.41%
23,Cc1ccc2c(c1)c(N1CCCC1=O)c(C(=O)Nc1ccc(F)cc1F)n2C,inactive: -11.8%
24,Cc1cccc(N(C)c2ccc3cc(S(=O)(=O)N4CCCC4)ccc3n2)c1,inactive: -2.65%

row,SMILES,"activity change, negative = inhibition"
1,CCC(=O)N1CCc2cc(S(=O)(=O)NC(Cc3ccccc3)C(=O)Nc3cccc(OC)c3)ccc21 (stereo not given),inactive: -0.999%
2,CCOC(=O)c1cc(S(=O)(=O)N2CCN(c3ccc(C)cc3C)CC2)[nH]n1,inactive: 0.0904%
3,Cc1ccc(C)c(NC(=O)CSC2=Nc3ccccc3N=C(c3ccc(F)cc3)C2)c1,inactive: -4.56%
4,Cc1ccc(-c2nnc3c4ccccc4c(C)nn23)cc1NC(=O)c1ccccc1Cl,inactive: 5.78%
5,COc1cccc(N2CCN(c3ncnc4onc(-c5ccc(F)cc5)c34)CC2)c1,inactive: 3.68%
6,O=C(C1CCCN(S(=O)(=O)c2cccc3nsnc23)C1)N1CCN(c2ccccc2Cl)CC1 (stereo not given),inactive: -0.0431%
7,O=C(CCCCCn1c(=O)[nH]c2ccccc2c1=O)NCc1ccccc1,inactive: 1.01%
8,Cc1nc2scc(C)n2c(=O)c1S(=O)(=O)N1CCN(c2cccc(C(F)(F)F)c2)CC1,inactive: -23.5%
9,CN(C)c1ccc(NC(=O)Cn2cc(S(=O)(=O)Cc3cccc(Cl)c3)c3ccccc32)cc1,inactive: -0.105%
10,CC(=O)c1cc(-c2ccccc2)n(CCC(=O)Nc2ccc(C)cc2C)c1C,inactive: -4.55%
11,COc1ccc(N2CC(NC(=O)c3cc4ccccc4o3)CC2=O)cc1 (stereo not given),inactive: -2.39%
12,Cc1cc(C(=O)NCc2ccc(Cl)cc2)c2c(C)nn(-c3ccccc3)c2n1,inactive: 1.02%
13,COC(=O)c1c(NC(=O)Nc2ccc(Cl)cc2)sc(C)c1C,inactive: 1.57%
14,COc1ccccc1CNC(=O)CCC1N=C2c3ccccc3N=C(SCc3ccc(C)cc3)N2C1=O (stereo not given),inactive: -2.02%
15,CS(=O)(=O)N1CCc2cc(C(=O)N3CCN(c4ccccc4)CC3)ccc21,inactive: 0.404%
16,CC1CCC(N2CC(=O)N(C3CCCCC3)C(c3ccc(F)cc3)C2=O)CC1 (stereo not given),inactive: 4.98%
17,Cc1ccc2c(c1)N(C(=O)Nc1cccc(C)c1C)CCO2,inactive: -6.04%
18,COc1ccc(CCC(=O)NCCc2csc(-c3ccc(C(F)(F)F)cc3)n2)cc1,inactive: -28.3%
19,CCCc1nnc(NC(=O)c2cc(=O)c3cc(Cl)ccc3o2)s1,inactive: 5.95%
20,COc1ccccc1NC(=O)NCc1cccn1Cc1ccccc1,inactive: 3.87%
21,Cc1cc(Br)ccc1NC(=O)c1ccc(NS(=O)(=O)c2c(C)noc2C)cc1,inactive: -5.25%
22,COc1cccc(-c2nc(SCC(=O)NC3CCCC3)c(-c3ccccc3)[nH]2)c1,inactive: -16.7%
23,COc1ccc(NC(=O)Cn2cnc3ccc(S(=O)(=O)N4CCC(C)CC4)cc3c2=O)cc1OC,inactive: 2.59%
24,CCOc1ccc(NC(=O)/C=C\C(=O)N(c2ccc(C(C)C)cc2)C(C(=O)NCc2ccco2)c2ccc(F)cc2)cc1 (stereo not given),inactive: -2.44%

row,SMILES,"activity change, negative = inhibition"
1,O=C(CSc1nc(-c2cccs2)nc2cc(=O)[nH]n12)Nc1ccccc1F,inactive: -11.3%
2,CCCOc1ccc(C(=O)Nc2ccc(Cl)c(-c3nc4ncccc4o3)c2)cc1,inactive: 3.39%
3,CCOc1ccc(CCNC(=O)CSc2cc(=O)n(C)c3cc(Cl)ccc23)cc1OCC,inactive: 2.57%
4,Cc1c(-c2nsc(NC(=O)c3cccc(Cl)c3)n2)nnn1-c1ccccc1C(F)(F)F,inactive: -8.58%
5,CSc1ccc(CCNC(=O)CN2C(=O)c3cccnc3Oc3ccc(Cl)cc32)cc1,inactive: -4.67%
6,CCOc1ccc(CCNC(=O)CCc2c(C)nc3cc(-c4ccccc4OC)nn3c2C)cc1,inactive: -4.23%
7,Nc1c(-c2nc(-c3ccc4c(c3)OCO4)cs2)c2ccccn2c1C(=O)c1ccccc1,inactive: -0.221%
8,CCCCn1c(NCc2cc(Cl)ccc2O)nc2ccccc21,inactive: -0.495%
9,Cc1ccc(C)c(OCC(=O)Nc2ccc(S(=O)(=O)Nc3onc(C)c3C)cc2)c1C,inactive: 1.36%
10,CCC(C(=O)Nc1ccccc1OC)n1nc(C)c2sc3ccccc3c2c1=O (stereo not given),inactive: 0.438%
11,CC(Sc1cn(CCNC(=O)c2ccccc2F)c2ccccc12)c1ccccc1 (stereo not given),inactive: -2.34%
12,Cc1ccc(NC(=O)c2c(C)oc3nc(C)nc(N4CCCC4)c23)c(C)c1,inactive: 7.39%
13,CCN(CCCNC(=O)CSc1cc(=O)n(CC)c2ccccc12)c1cccc(C)c1,inactive: 1.73%
14,CCOc1ccc(CCNC(=O)c2ccc(CS(=O)Cc3cccc(Cl)c3)o2)cc1 (stereo not given),inactive: -3.54%
15,COC(=O)c1ccc(NC(=O)CSc2ncc3c(n2)-c2cc(Cl)ccc2N(Cc2ccccc2)S3(=O)=O)cc1,inactive: -8.94%
16,COc1ccc(NC(=O)c2c(NCc3sccc3C)sc3c2CCCCC3)c(OC)c1,inactive: -24.3%
17,Cc1ccc2c(=O)c(C(=O)c3ccc(Cl)cc3)cn(CC(=O)NC3CCCCC3)c2n1,inactive: -5.49%
18,O=S(=O)(c1ccc(F)cc1)N(Cc1nc(-c2ccc(Cl)cc2)no1)C1CCCCC1,inactive: -13.5%
19,COc1ccc(Br)cc1C(=O)Nc1ccc(-c2nc3cc(Cl)ccc3o2)cc1,inactive: 1.73%
20,Cc1c(NC(=O)c2cccc3c(Cl)cccc23)cccc1-c1nc2ccccc2o1,inactive: 1.08%
21,O=C(CCS(=O)(=O)c1cc(Br)cc2c1N(C(=O)C1CC1)CC2)NCc1ccccc1Cl,inactive: 0.619%
22,COc1ccc2c(c1)c(=O)c(S(=O)(=O)c1ccc(C)cc1)cn2Cc1ccccc1C,inactive: -4.54%
23,COC(=O)c1sccc1S(=O)(=O)N(CC(=O)Nc1c(C)cccc1C)c1ccc(C)c(C)c1,inactive: -14.1%
